Biological target: T1, recombinant M1-linked tetra-ubiquitin (UniProt P0CG48 in part; P0CG48 in part; P0CG48 in part; P0CG48 in part)
T1 construct: ubiquitin moiety 1 of 4, joined head to tail on one chain (synthetic codon-optimised gene); ubiquitin moiety 2 of 4; ubiquitin moiety 3 of 4; ubiquitin moiety 4 of 4; One polypeptide of four ubiquitin moieties; also called 4×M1-ub; linear tetra-ubiquitin; source: E. coli BL21 (DE3) pLysS, purified (GSTrap, PreScission cleavage, CaptoQ flow-through)
Test: other fluorescence titration; steady-state intrinsic fluorescence (excitation 295 nm, emission 333 nm); NEMO fixed at 15 µM or Q330X NEMO at 5 µM, 4×M1-ub varied 0-30 µM (NEMO) or up to 70 µM (Q330X NEMO); 25°C, 10 mM Tris–HCl pH 7.4; fit to an equivalent and independent binding site model
Conditions: both partners purified

B1: untagged WT NEMO purified from insect cells (natural protein)
chain: not shown
notes: the printed primers run from codon 2, directly behind the 3C site, to the stop codon after E419; printed mass of the cleaved protein 48,221 D; also called His-MBP-WT NEMO (before cleavage); source: Sf9 insect cells (baculovirus), purified (Ni-NTA, on-column HRV-3C cleavage, size exclusion); not shown: His, N-terminal, cleaved; MBP, N-terminal, cleaved
Ka: 5e+06 M⁻¹

— publication PMC9889916, “Linear ubiquitination induces NEMO phase separation to activate NF-κB signaling” (Life Science Alliance, 2023)
